# Results taken from the supplement of paper PMC8728848.
# Some of the results follow.
# B1: PX9937B-bvu-524-33-524 (Bacteroides vulgatus) (protein)
# chain: GTAYWKNPDQFTAFNTGLHALLREKSYNFFLLGEPRADIYGDNPIGGEASQGMERLPFNTINKENVGISNYGDMYKIINQINQMIAKTTETTILTEATQNYYLGEAYGMRAYLYFHLLRSWGDVVLYLDYTEGQNLDLSNITKGVSPATEVMEQIKKDIQASENAFGSDYSFKLGRHFWSAAATQMLKGEAYLWSGRQMNGGNSDYTIAKNAFENVKKADVGLVTSSFKDIFSFENKKNKEMIFTIHNGKDEYEMWGGYYRMRLIPAQDKMVKIYCDENGNSFVGTPDAQLNGLTQLQVRREFYFKGFRNNDTRWTTSLKAVYKKDAQGVVSYFGPITYKFQGTMLEGGSTRSFLDDFPIYRYADCLLQLAMAKVLLGEDPTEEINAVRERAYGSKYFNEHKAEIAYPNDNDPEFYTDNKWMKPDNAGALEAILKERLREFMFEGKRWYDIRLLGWDYVHQYSSAEQSRLLWPIDAGTLTNNSALKQTPGYE
# How the values were obtained:
# Assay in all cases: glycan array binding signal (z-score within array); higher = stronger binding
# Conditions in all cases: glycan notation: IUPAC condensed, linker removed
# [1] = target: Fuc(a1-2)[Gal(a1-4)]Gal(b1-4)GlcNAc
# How it was run: (§1)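 Glycan array data were curated from 3228 arrays in the Consortium for Functional Glycomics database and kept only where the protein sequence was available. Glycan names were converted to IUPAC-condensed notation, and columns mapping to the same glycan were averaged. The binding signal is a within-array Z-score, averaged across arrays of the same protein sequence at different concentrations or buffers and across linkers. Negative Z-scores can be read as non-binding.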
# [2] = target: Fuc(a1-2)[GalNAc(a1-3)]Gal
# How it was run: as §1
# [3] = target: Fuc(a1-2)[GalNAc(a1-3)]Gal(b1-3)GalNAc(a1-3)[Fuc(a1-2)]Gal(b1-4)GlcNAc
# How it was run: as §1
# [4] = target: Fuc(a1-2)[GalNAc(a1-3)]Gal(b1-3)GalNAc(b1-3)Gal(a1-4)Gal(b1-4)Glc
# How it was run: as §1
# [5] = target: Fuc(a1-2)[GalNAc(a1-3)]Gal(b1-3)GlcNAc
# How it was run: as §1
# [6] = target: Fuc(a1-2)[GalNAc(a1-3)]Gal(b1-3)GlcNAc(b1-2)Man(a1-3)[Fuc(a1-2)[GalNAc(a1-3)]Gal(b1-3)GlcNAc(b1-2)Man(a1-6)]Man(b1-4)GlcNAc(b1-4)GlcNAc
# How it was run: as §1
# [7] = target: Fuc(a1-2)[GalNAc(a1-3)]Gal(b1-3)GlcNAc(b1-2)Man(a1-3)[Fuc(a1-2)[GalNAc(a1-3)]Gal(b1-3)GlcNAc(b1-2)Man(a1-6)]Man(b1-4)GlcNAc(b1-4)[Fuc(a1-6)]GlcNAc
# How it was run: as §1
# [8] = target: Fuc(a1-2)[GalNAc(a1-3)]Gal(b1-3)GlcNAc(b1-3)GalNAc
# How it was run: as §1
# [9] = target: Fuc(a1-2)[GalNAc(a1-3)]Gal(b1-3)GlcNAc(b1-6)GalNAc
# How it was run: as §1
# [10] = target: Fuc(a1-2)[GalNAc(a1-3)]Gal(b1-4)Glc
# How it was run: as §1
# [11] = target: Fuc(a1-2)[GalNAc(a1-3)]Gal(b1-4)GlcNAc
# How it was run: as §1
# [12] = target: Fuc(a1-2)[GalNAc(a1-3)]Gal(b1-4)GlcNAc(b1-2)Man
# How it was run: as §1
# [13] = target: Fuc(a1-2)[GalNAc(a1-3)]Gal(b1-4)GlcNAc(b1-2)Man(a1-3)[Fuc(a1-2)[GalNAc(a1-3)]Gal(b1-4)GlcNAc(b1-2)Man(a1-6)]Man(b1-4)GlcNAc(b1-4)GlcNAc
# How it was run: as §1
# [14] = target: Fuc(a1-2)[GalNAc(a1-3)]Gal(b1-4)GlcNAc(b1-2)Man(a1-3)[Fuc(a1-2)[GalNAc(a1-3)]Gal(b1-4)GlcNAc(b1-2)Man(a1-6)]Man(b1-4)GlcNAc(b1-4)[Fuc(a1-6)]GlcNAc
# How it was run: as §1
# [15] = target: Fuc(a1-2)[GalNAc(a1-3)]Gal(b1-4)GlcNAc(b1-3)Gal(b1-4)GlcNAc
# How it was run: as §1
# [16] = target: Fuc(a1-2)[GalNAc(a1-3)]Gal(b1-4)GlcNAc(b1-3)Gal(b1-4)GlcNAc(b1-3)Gal(b1-4)GlcNAc
# How it was run: as §1
# [17] = target: Fuc(a1-2)[GalNAc(a1-3)]Gal(b1-4)GlcNAc(b1-3)GalNAc
# How it was run: as §1
# [18] = target: Fuc(a1-2)[GalNAc(a1-3)]Gal(b1-4)GlcNAc(b1-3)[Fuc(a1-2)[GalNAc(a1-3)]Gal(b1-4)GlcNAc(b1-6)]GalNAc
# How it was run: as §1
# [19] = target: Fuc(a1-2)[GalNAc(a1-3)]Gal(b1-4)GlcNAc(b1-6)GalNAc
# How it was run: as §1
# [20] = target: Fuc(a1-2)[GalNAc(a1-3)]Gal(b1-4)[Fuc(a1-3)]GlcNAc
# How it was run: as §1
# [21] = target: Fuc(a1-2)[GalNAc(a1-3)]Gal(b1-4)[Fuc(a1-3)]GlcNAc(b1-3)GalNAc
# How it was run: as §1
# [22] = target: Fuc(a1-2)[GalNAc(a1-4)]Gal(b1-4)GlcNAc
# How it was run: as §1
# [23] = target: Fuc(a1-2)[GalNAc(b1-3)]Gal
# How it was run: as §1
# Fuc(a1-3)GlcNAc = target: Fuc(a1-3)GlcNAc
# How it was run: as §1
# [24] = target: Fuc(a1-3)[Gal(b1-4)]Glc6S
# How it was run: as §1
# [25] = target: Fuc(a1-3)[Gal(b1-4)]GlcNAc
# How it was run: as §1
# [26] = target: Fuc(a1-3)[Gal(b1-4)]GlcNAc(b1-2)Man
# How it was run: as §1
# [27] = target: Fuc(a1-3)[Gal(b1-4)]GlcNAc(b1-2)Man(a1-3)[Fuc(a1-3)[Gal(b1-4)]GlcNAc(b1-2)Man(a1-6)]Man(b1-4)GlcNAc(b1-4)GlcNAc
# How it was run: as §1
# [28] = target: Fuc(a1-3)[Gal(b1-4)]GlcNAc(b1-2)Man(a1-3)[Fuc(a1-3)[Gal(b1-4)]GlcNAc(b1-2)Man(a1-6)]Man(b1-4)GlcNAc(b1-4)[Fuc(a1-6)]GlcNAc
# How it was run: as §1
# [29] = target: Fuc(a1-3)[Gal(b1-4)]GlcNAc(b1-3)Gal(b1-3)[Fuc(a1-4)]GlcNAc
# How it was run: as §1
# [30] = target: Fuc(a1-3)[Gal(b1-4)]GlcNAc(b1-3)Gal(b1-4)[Fuc(a1-3)]GlcNAc
# How it was run: as §1
# [31] = target: Fuc(a1-3)[Gal(b1-4)]GlcNAc(b1-3)Gal(b1-4)[Fuc(a1-3)]GlcNAc(b1-3)Gal(b1-4)[Fuc(a1-3)]GlcNAc
# How it was run: as §1
# [32] = target: Fuc(a1-3)[Gal(b1-4)]GlcNAc(b1-3)GalNAc
# How it was run: as §1
# [33] = target: Fuc(a1-3)[Gal(b1-4)]GlcNAc(b1-6)GalNAc
# How it was run: as §1
# [34] = target: Fuc(a1-3)[Gal(b1-4)]GlcNAc(b1-6)[Gal(b1-3)GlcNAc(b1-3)]Gal(b1-4)Glc
# How it was run: as §1
# [35] = target: Fuc(a1-3)[Gal(b1-4)]GlcNAc6S
# How it was run: as §1
# [36] = target: Fuc(a1-3)[Gal3S(b1-4)]Glc
# How it was run: as §1
# [37] = target: Fuc(a1-3)[Gal3S(b1-4)]GlcNAc
# How it was run: as §1
binder,measurement,setting,value
B1,glycan array binding signal (z-score),[1],-0.238
same,glycan array binding signal (z-score),[2],-0.303
same,glycan array binding signal (z-score),[3],-0.066
same,glycan array binding signal (z-score),[4],-0.146
same,glycan array binding signal (z-score),[5],-0.431
same,glycan array binding signal (z-score),[6],-0.315
same,glycan array binding signal (z-score),[7],-0.469
same,glycan array binding signal (z-score),[8],-0.159
same,glycan array binding signal (z-score),[9],-0.168
same,glycan array binding signal (z-score),[10],-0.288
same,glycan array binding signal (z-score),[11],-0.354
same,glycan array binding signal (z-score),[12],-0.41
same,glycan array binding signal (z-score),[13],-0.183
same,glycan array binding signal (z-score),[14],-0.269
same,glycan array binding signal (z-score),[15],-0.333
same,glycan array binding signal (z-score),[16],1.11
same,glycan array binding signal (z-score),[17],-0.348
same,glycan array binding signal (z-score),[18],-0.373
same,glycan array binding signal (z-score),[19],-0.359
same,glycan array binding signal (z-score),[20],-0.135
same,glycan array binding signal (z-score),[21],-0.28
same,glycan array binding signal (z-score),[22],-0.018
same,glycan array binding signal (z-score),[23],-0.008
same,glycan array binding signal (z-score),Fuc(a1-3)GlcNAc,-0.006
same,glycan array binding signal (z-score),[24],0.261
same,glycan array binding signal (z-score),[25],-0.337
same,glycan array binding signal (z-score),[26],-0.243
same,glycan array binding signal (z-score),[27],1.23
same,glycan array binding signal (z-score),[28],-0.318
same,glycan array binding signal (z-score),[29],-0.479
same,glycan array binding signal (z-score),[30],-0.277
same,glycan array binding signal (z-score),[31],-0.3
same,glycan array binding signal (z-score),[32],-0.278
same,glycan array binding signal (z-score),[33],2.69
same,glycan array binding signal (z-score),[34],-0.305
same,glycan array binding signal (z-score),[35],0.219
same,glycan array binding signal (z-score),[36],-0.4
same,glycan array binding signal (z-score),[37],-0.321
